# According to PMC4336329 (PLoS ONE, 2015):
# The whole screen tested about 310,000 compounds, of which about 2,200 (0.71%) showed an effect of 50% or more. The effect is printed as a negative number. Some of the results follow.
# Biological target: human ether-à-go-go-related gene (hERG) potassium channel (human, UniProt Q12809)
# Assay: primary screen, population patch clamp on CHO cells stably expressing hERG
# human ether-à-go-go-related gene (hERG) potassium channel, sequence (Q12809 whole entry, looked up): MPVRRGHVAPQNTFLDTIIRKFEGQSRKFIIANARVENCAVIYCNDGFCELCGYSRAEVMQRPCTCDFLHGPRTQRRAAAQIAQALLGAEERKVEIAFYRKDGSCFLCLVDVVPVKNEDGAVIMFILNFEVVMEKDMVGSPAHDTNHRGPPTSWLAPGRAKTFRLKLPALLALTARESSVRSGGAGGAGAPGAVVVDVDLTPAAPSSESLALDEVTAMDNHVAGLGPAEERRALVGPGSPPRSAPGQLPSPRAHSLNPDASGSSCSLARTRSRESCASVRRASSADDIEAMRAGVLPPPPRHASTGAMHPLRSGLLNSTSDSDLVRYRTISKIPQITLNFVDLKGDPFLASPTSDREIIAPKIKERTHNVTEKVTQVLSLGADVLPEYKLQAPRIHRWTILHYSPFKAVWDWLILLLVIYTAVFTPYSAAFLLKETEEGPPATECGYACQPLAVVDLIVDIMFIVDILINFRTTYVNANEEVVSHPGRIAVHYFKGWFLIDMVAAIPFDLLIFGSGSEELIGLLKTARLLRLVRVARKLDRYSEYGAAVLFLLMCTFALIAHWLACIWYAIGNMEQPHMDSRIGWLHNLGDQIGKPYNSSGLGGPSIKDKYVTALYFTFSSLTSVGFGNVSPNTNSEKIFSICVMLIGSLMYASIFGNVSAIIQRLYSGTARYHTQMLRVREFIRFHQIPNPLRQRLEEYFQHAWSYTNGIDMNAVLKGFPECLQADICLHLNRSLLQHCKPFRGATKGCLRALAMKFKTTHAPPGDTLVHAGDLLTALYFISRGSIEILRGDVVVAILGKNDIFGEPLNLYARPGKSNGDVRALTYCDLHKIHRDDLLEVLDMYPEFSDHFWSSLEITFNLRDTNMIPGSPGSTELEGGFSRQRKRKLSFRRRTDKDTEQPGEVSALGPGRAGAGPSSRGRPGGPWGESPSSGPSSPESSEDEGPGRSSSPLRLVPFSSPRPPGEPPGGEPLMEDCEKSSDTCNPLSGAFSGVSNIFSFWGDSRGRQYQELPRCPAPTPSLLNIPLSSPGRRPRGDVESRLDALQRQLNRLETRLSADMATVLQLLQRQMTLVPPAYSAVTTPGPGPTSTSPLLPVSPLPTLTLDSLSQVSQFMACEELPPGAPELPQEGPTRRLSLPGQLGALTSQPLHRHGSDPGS
row,Structure (SMILES),"hERG current change (%, negative = inhibition) at 1uM [%]"
1,COc1ccc2cc(CN(CCc3ccccc3)Cc3nnnn3Cc3ccco3)c(=O)[nH]c2c1,8.04
2,O=C(O)c1ccccc1SCc1cn2cc(Br)ccc2n1,13.9
3,O=C(NCCN=C1NS(=O)(=O)c2ccccc21)c1ccc(S(=O)(=O)N2CCOCC2)cc1,2.08
4,CCOC(=O)N1CCN(CCC(=O)Nc2ccc(F)c(F)c2)CC1,14.6
5,Cc1ccccc1NCc1ccc([N+](=O)[O-])s1,0.957
6,CCC(=O)Nc1cccc(NC(=O)CSc2nnc(-c3ccc(NS(C)(=O)=O)cc3)n2C)c1,4.58
7,O=C(CSc1nc2ccccc2o1)NC(=O)NCc1ccco1,3.13
8,N#CC(C#N)=Cc1cn(-c2ncc(C(F)(F)F)cc2Cl)c2ccccc12,9.92
9,CCCOc1cc(C)c(S(=O)(=O)n2nnc3ccccc32)cc1C,12
10,O=C(c1cccc(S(=O)(=O)N2CCCC2)c1)c1nnc(-c2ccncc2)o1,14.5
11,O=C(NC(=S)N1CCCc2ccccc21)c1ccccc1,12.9
12,COc1ccc(/C=C/C(=O)OC2CCCN(C)C2)cc1.Cl (stereo not drawn),8.08
13,O=C(NN1C(=O)/C(=C/C=C/c2ccco2)SC1=S)c1ccccc1O,11
14,CSc1ccccc1NC(=O)c1c(C)noc1C,1.3
15,CCOc1cc(NC(=S)NCCCN2CCOCC2)c(OCC)cc1NC(=O)c1ccccc1C,4.2
16,O=C(/C=C/N1CCOCC1)c1ccc(-c2ccccc2)cc1,11.3
17,Cc1cnc(C(=O)N2CCCC(C(=O)c3ccc(Cl)cc3C)C2)cn1 (stereo not drawn),5.43
18,COc1ccc(NC(=O)C(=O)NNC(=O)c2cccs2)cc1,16.8
19,O=C(COC(=O)c1cc(S(=O)(=O)N2CCOCC2)ccc1F)NCc1ccco1,1.52
20,CC12CN3CN(C1)CC(c1ccccc1)(C3)C2=O,16
21,COc1ccccc1OCCN1C(=O)S/C(=C\c2ccco2)C1=O,-2.97

row,Structure (SMILES),"hERG current change (%, negative = inhibition) at 1uM [%]"
1,CCC(CC)COC(=O)C1=C(C)NC(=O)NC1c1cc(OC)ccc1OC (stereo not drawn),9.6
2,COc1ccc(/C=N\NC(=O)c2ccccc2[N+](=O)[O-])cc1COc1c(F)c(F)c(F)c(F)c1F,14.1
3,CC(C)(C)c1ccc(C(=O)NCCn2c(N)c(C#N)c3nc4ccccc4nc32)cc1,10.2
4,CCc1nnc(NC(=O)CN2CCN(Cc3ccc(C)cc3)CC2)s1,-27.3
5,NC(=O)c1ncc(C(F)(F)F)cc1Oc1ccc(C(F)(F)F)cc1,13
6,COc1ccc(NC(=O)CN2CCCC2c2cccs2)cc1S(=O)(=O)N1CCCCC1 (stereo not drawn),0.0011
7,NS(=O)(=O)c1ccc(CCNC(=O)CC(c2ccccc2)c2ccccc2)cc1,3.84
8,O=C(NCc1cccs1)C1CC(=O)N(c2ccc(F)cc2)C1 (stereo not drawn),-1.15
9,C=C(C)[C@@H]1CC=C(C(=O)O)CC1,0.0391
10,N/C(=N\OC(=O)c1ccc2ccccc2c1)c1ccccc1Cl,7.03
11,Cc1ccc(-c2nnc(SCc3nc(N)nc(Nc4ccccc4C)n3)n2N)cc1,2.21
12,COc1ccc(C(=O)NC(=S)NNC(=O)c2ccc3ccccc3n2)cc1,11.2
13,Cc1ccc(NC(=O)/C(C#N)=C/c2cccs2)c(C)c1,-4.64
14,COc1ccc(CNC(=O)c2cc(-c3cccs3)on2)cc1,1.71
15,CC1(C(=O)N2CCC(CC3CC(c4ccc(Cl)cc4)=NO3)(C(=O)NCC3CCCCC3)CC2)CC1 (stereo not drawn),2.37
16,O=C(NCc1cccs1)Nc1ccc(Cl)cc1,-3.6
17,CCOc1cccc(OCC)c2c(C)[n+](CC3CCCO3)c(C)c1-2.[O-][Cl+3]([O-])([O-])[O-] (stereo not drawn),9.93
18,CCOC(=O)C1=C(CC)OC(N)=C(C#N)C1c1ccc(OC)cc1OC (stereo not drawn),10.2
19,O=C(Oc1ccc(/C=N/NC(=O)c2ccccn2)cc1)c1ccc(Br)cc1,3.91
20,O=c1c([N+](=O)[O-])cccn1Cc1ccccc1Cl,7.31
21,Cc1cccc(C)c1NC1=NC(=S)N(c2ccc(N(C)C)cc2)C1(C)C,7.62

row,Structure (SMILES),"hERG current change (%, negative = inhibition) at 1uM [%]"
1,Cc1noc(C)c1CS(=O)(=O)Cc1ccc(Cl)cc1,10.1
2,O=C1CCCC2=C1C(c1cccc(Br)c1)n1nc(-c3ccco3)nc1N2 (stereo not drawn),9.46
3,COc1ccccc1N(C)S(=O)(=O)c1ccc(Cl)c(C(=O)NNC(=O)c2ccccc2O)c1,5.96
4,Nc1cc(Oc2ccc(F)cc2F)cc([N+](=O)[O-])c1,10.1
5,Cc1ccc(NC(=O)C2CSC3(C)CCC(=O)N23)cc1S(=O)(=O)N1CCCCCC1 (stereo not drawn),6.17
6,Cc1nn(Cc2c(F)c(F)c(F)c(F)c2F)c(C)c1NC(=O)c1c([N+](=O)[O-])cnn1C,9.21
7,COc1ccccc1NC(=O)CCC(=O)c1ccc(-c2ccccc2)cc1,20.7
8,COc1cc(C)nc(N2CCCC(C(=O)NCC(C)C)C2)n1 (stereo not drawn),12.3
9,CC(CNC(=O)c1cncc(O)c1)NC(=O)c1cncc(O)c1.Cl (stereo not drawn),6.98
10,O=C(O)c1ccc(/C=C2\SC(=S)N(Nc3ccccc3)C2=O)cc1,-0.693
11,CNS(=O)(=O)c1ccc(NC(=O)c2cnn3c(C(F)F)cc(-c4ccccc4)nc23)cc1,3.27
12,O=C(Cc1ccccc1)NCC(=O)OCC(=O)c1ccc(F)cc1,-2.39
13,CC(C)(C)c1ccc(C(=O)NNC(=O)C2CCCCC2)cc1,10.1
14,C#CCNC(=O)C1=C[C@@H](c2csc3ccccc23)[C@H](CCCO)[C@@H](OCC)O1,-11.2
15,COc1ccc(NC(=S)N(CCc2c(C)[nH]c3ccccc23)Cc2cccnc2)cc1,5.87
16,CC(=O)OCc1nc2sc3c(c2c(=O)[nH]1)CCCC3,11.1
17,COC(=O)[C@H]1[C@H]2C[C@@H]3c4[nH]c5cc(OC)ccc5c4CCN3C[C@H]2C[C@@H](OC(=O)/C=C/c2cc(OC)c(OC)c(OC)c2)[C@@H]1OC,7.37
18,CCc1cc(/C(Cc2ccc3ccccc3n2)=N\O)c(O)cc1O,9.16
19,C=CCN1C2CCCC1CC(NC(=O)Nc1cc(C)cc(C)c1)C2 (stereo not drawn),-26.1
20,COc1ccc(-c2nnc(SCC(=O)c3ccc4c(c3)OCCO4)o2)cc1,-1.64
21,Cc1ccc(S(=O)(=O)N2[C@@H](c3ccc(Cl)cc3)C(C(=O)O)=CC[C@H]2c2ccc(C(C)C)cc2)cc1,-11.1

row,Structure (SMILES),"hERG current change (%, negative = inhibition) at 1uM [%]"
1,COc1ccc(C2NC(=O)NC(C)=C2C(=O)Nc2cccc(C)c2C)cc1 (stereo not drawn),3.18
2,COc1ccc(CCNc2cc(=O)[nH]c(N)n2)cc1,-1.01
3,COc1cc2c(cc1OC)CN(C(=O)c1ccc(OC)c([N+](=O)[O-])c1)CC2,13
4,COc1ccc(CCNCC(=O)Nc2ccccc2C(F)(F)F)cc1.O=C(O)C(=O)O,10.7
5,Cc1cccc(NC(=O)Cn2c(=O)oc3ccccc32)c1C,12.8
6,O=C(Cc1ccc(Cl)cc1)NN1C(=O)c2ccccc2C1=O,8.79
7,COc1ccc(C(CC(=O)N2CCCC(C)C2)c2c(OC)cc(OC)c3c(-c4ccccc4)cc(=O)oc23)cc1 (stereo not drawn),7.43
8,Cn1cc(CN(Cc2ccccn2)C[C@@H]2CCC(=O)N2)c(-c2ccccc2F)n1,12.1
9,CC(C)(C)N1C(=O)c2ccc(C(=O)Nc3ccc(C(=O)O)cc3)cc2C1=O,10.2
10,Cc1cc(Br)c(OCc2ccc(C(=O)N/N=C3\CC(=O)CC(C)(C)C3)cc2)c(Br)c1,15.5
11,O=C1CC(NS(=O)(=O)c2cccnc2)CN1c1ccc(F)cc1 (stereo not drawn),2.92
12,Cc1nc2ccc(Cc3ccc4nc(C)[nH]c4c3)cc2[nH]1,10.1
13,CC1(c2ccc3ccccc3c2)NC(=O)NC1=O (stereo not drawn),13.2
14,C=CCCCCCCCCC(=O)N1CCN(c2cc3c(cc2F)c(=O)c(C(=O)O)cn3CC)CC1,7.08
15,CC(=NCc1cccnc1)c1c(O)n(-c2ccccc2C)c(=O)[nH]c1=O,-2.41
16,CCN(CC)C(=O)Cn1cc(/C=C(\C#N)C(=O)N2CCN(c3ccccc3)CC2)c2ccccc21,-1.66
17,CC(C)Cn1c(N)c(C(=O)COC(=O)c2ccncc2)c(=O)n(C)c1=O,7.31
18,COc1ccc(-c2cc3n(n2)CCc2nc4ccccc4n2-3)cc1,16.5
19,Cc1nc(SCC(=O)Nc2c(C)n(C)n(-c3ccccc3)c2=O)nc(C)c1C,-0.752
20,CC(c1ccon1)N(C)Cc1cn(C)nc1-c1ccc2c(c1)OCCO2 (stereo not drawn),10.4
21,COc1ccc(C(=O)Nc2ccc3c(c2)nc(CN2CCN(C(C)=O)CC2)n3C)cc1,10.4
